Results on one molecule are retold here after patent US10188647B2, “Combination therapy using P53 activator and c-Met inhibitor” (Samsung Electronics Co., Ltd., priority 2013, dated 2019).

Common to all, as to details: rank among the four antibodies selected in Reference Example 1.7
For assay [1], the target named is T1, c-Met (Homo sapiens, UniProt P08581). The experiment in a line: Affinity for c-Met of affinity-matured antibodies. Type of assay: binding.
In another assay the test system is Akt phosphorylation. As to the kind of experiment: Akt phosphorylation degree of affinity-matured antibodies. It counts as cell-based.
In assay [2] the target is T1, c-Met. As to the kind of experiment: c-Met degradation degree of affinity-matured antibodies. It counts as cell-based.

T1 sequence (P08581 25-1390): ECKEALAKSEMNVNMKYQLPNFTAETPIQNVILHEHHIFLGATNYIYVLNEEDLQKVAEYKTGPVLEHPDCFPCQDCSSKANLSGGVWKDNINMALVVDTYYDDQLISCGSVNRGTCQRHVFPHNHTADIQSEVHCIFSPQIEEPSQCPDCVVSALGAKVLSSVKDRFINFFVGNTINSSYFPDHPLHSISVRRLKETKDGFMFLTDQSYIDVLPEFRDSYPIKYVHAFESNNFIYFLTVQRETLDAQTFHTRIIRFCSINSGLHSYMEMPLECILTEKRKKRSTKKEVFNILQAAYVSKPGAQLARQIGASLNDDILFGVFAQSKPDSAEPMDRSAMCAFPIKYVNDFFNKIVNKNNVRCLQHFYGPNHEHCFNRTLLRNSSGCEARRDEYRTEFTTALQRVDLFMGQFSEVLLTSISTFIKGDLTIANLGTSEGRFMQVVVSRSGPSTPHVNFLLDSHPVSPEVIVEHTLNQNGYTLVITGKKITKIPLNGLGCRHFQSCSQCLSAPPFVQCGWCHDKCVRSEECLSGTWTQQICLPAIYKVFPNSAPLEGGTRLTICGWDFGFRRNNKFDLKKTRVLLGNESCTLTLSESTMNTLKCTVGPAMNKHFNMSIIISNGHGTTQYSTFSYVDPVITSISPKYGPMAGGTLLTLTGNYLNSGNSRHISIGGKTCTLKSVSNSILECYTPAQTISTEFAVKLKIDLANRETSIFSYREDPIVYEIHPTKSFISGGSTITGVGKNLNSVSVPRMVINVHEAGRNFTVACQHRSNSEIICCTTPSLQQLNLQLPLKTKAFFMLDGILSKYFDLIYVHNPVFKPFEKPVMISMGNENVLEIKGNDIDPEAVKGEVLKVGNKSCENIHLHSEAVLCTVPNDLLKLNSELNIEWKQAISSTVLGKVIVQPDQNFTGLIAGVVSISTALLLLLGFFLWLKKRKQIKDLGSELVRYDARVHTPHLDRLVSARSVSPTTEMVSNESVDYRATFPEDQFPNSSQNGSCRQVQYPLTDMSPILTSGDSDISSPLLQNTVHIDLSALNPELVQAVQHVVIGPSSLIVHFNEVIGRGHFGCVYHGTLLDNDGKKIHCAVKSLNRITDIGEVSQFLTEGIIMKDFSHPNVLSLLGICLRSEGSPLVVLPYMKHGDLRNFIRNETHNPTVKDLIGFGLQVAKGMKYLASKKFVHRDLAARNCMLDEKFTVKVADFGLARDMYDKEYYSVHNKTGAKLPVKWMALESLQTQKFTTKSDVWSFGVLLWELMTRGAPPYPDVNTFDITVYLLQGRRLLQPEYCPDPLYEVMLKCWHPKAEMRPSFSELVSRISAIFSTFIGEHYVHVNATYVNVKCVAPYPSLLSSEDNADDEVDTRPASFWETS

B1: huAbF46-H4-A1: affinity-matured humanized anti-c-Met antibody of L3-1 origin (CDR-L3 SEQ ID NO: 13) (antibody)
heavy: EVQLVESGGGLVQPGGSLRLSCAASGFTFTDYYMSWVRQAPGKGLEWLGFIRNKANGYTTEYSASVKGRFTISRDNSKNTLYLQMNSLRAEDTAVYYCARDNWFAYWGQGTLVTVSSASTKGPSVFPLAPSSKSTSGGTAALGCLVKDYFPEPVTVSWNSGALTSGVHTFPAVLQSSGLYSLSSVVTVPSSSLGTQTYICNVNHKPSNTKVDKKVEPKSCDCH[human IgG1 Fc not given here]
light: DIQMTQSPSSLSASVGDRVTITCKSSQSLLASGNQNNYLAWHQQKPGKAPKMLIIWASTRVSGVPSRFSGSGSGTDFTLTISSLQPEDFATYYCQQSYSRPYTFGQGTKVEIKRTVAAPSVFIFPPSDEQLKSGTASVVCLLNNFYPREAKVQWKVDNALQSGNSQESVTEQDSKDSTYSLSSTLTLSKADYEKHKVYACEVTHQGLSSPVTKSFNRGEC
In the case of B1, the “affinity for c-Met” value in the assay with c-Met [1] is recorded as “highest”. Moreover, the Akt phosphorylation degree entry with Akt phosphorylation is “lowest”. In the assay with c-Met [2], the c-Met degradation degree result was “lowest”.
